Reference: PubChem BioAssay AID1745853 (National Center for Advancing Translational Sciences (NCATS), 2022)
The other results are listed elsewhere or left out. These are further read-outs of the screen, such as a control signal, another cell line or another target. No call is given for them.

How the values were obtained:
Experiment in all cases: Primary Screen for Target Class Profiling of Small Molecule Inhibitors of Methyltransferases
[1] = target: Glycine N-methyltransferase (Homo sapiens) (UniProt Q14749); details: purified enzyme, MTase-Glo SAH luminescence; measured here: GNMT inhibition; at 40 µM; stronger effect = lower value
How it was run: (§1)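 Each enzyme was reacted with SAM and its substrate, with compounds tested once at 40 uM; SAH formed was read by MTase-Glo luminescence.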

[2] = target: Guanidinoacetate N-methyltransferase (Homo sapiens) (UniProt Q14353); details: purified enzyme, MTase-Glo SAH luminescence; measured here: GAMT inhibition; at 40 µM; stronger effect = lower value
How it was run: as §1

[3] = target: Histamine N-methyltransferase (Homo sapiens) (UniProt P50135); details: purified enzyme, MTase-Glo SAH luminescence; measured here: HNMT inhibition; at 40 µM; stronger effect = lower value
How it was run: as §1

[4] = target: Nicotinamide N-methyltransferase (Homo sapiens) (UniProt P40261); details: purified enzyme, MTase-Glo SAH luminescence; measured here: NNMT inhibition; at 40 µM; stronger effect = lower value
How it was run: as §1

[5] = target: Phenylethanolamine N-methyltransferase (Homo sapiens) (UniProt P11086); details: purified enzyme, MTase-Glo SAH luminescence; measured here: PNMT inhibition; at 40 µM; stronger effect = lower value
How it was run: as §1
% is set by controls: 0 for no effect and ±100 for the full control effect.

Compound | activity change, negative = inhibition [1] | activity change, negative = inhibition [2] | activity change, negative = inhibition [3] | activity change, negative = inhibition [4] | activity change, negative = inhibition [5]
CCOC(=O)c1cc2n(n1)CC(C)(C(=O)NCCC(C)C)N(c1ccc(Cl)cc1)C2=O (stereo not given) | 1.52% | 0.571% | 3.87% | 5.6% | -1.2%
CCN1C(=O)c2c(C(=O)NCc3ccc(F)cc3)ncn2CC1(C)C(=O)NC1CCCC1 (stereo not given) | -4.18% | -9.26% | -0.182% | -11.6% | -4.24%
O=c1[nH]c([C@@H]2CCCN2)nc2c1oc1ccc(Cl)cc12 | 0.399% | 6.78% | 1.59% | -19.2% | -9.78%
C=CCNC(=O)c1cc2n(n1)CC(C)(C(=O)NCc1ccc(F)cc1)N(C)C2=O (stereo not given) | 0.229% | 3.1% | 3.37% | -1.61% | -0.966%
O=C(c1cc2ccccc2o1)N1CCC2(CCCN(Cc3ccccc3F)C2)C1 (stereo not given) | -9.53% | -3.85% | -9.47% | -14.6% | -29.2%
Cc1cc(C)cc(N2C(=O)CSc3c(c4ccccc4n3C)C2C(=O)NCCCOC(C)C)c1 (stereo not given) | -6.39% | 0% | 6.81% | 0.219% | 2.65%
CC(C)(C)NS(=O)(=O)c1ccc(-c2ccc3[nH]nc(N)c3c2)cc1 | 1.23% | 1.77% | 8.75% | -17% | 4.28%
CC(=O)N[C@H]1[C@H](O[C@H]2CC[C@@]3(C)C(CC[C@]4(C)C3CC=C3C5CC(C)(C)CC[C@]5(C(=O)O)[C@H](O[C@@H]5O[C@H](CO)[C@@H](O)[C@H](O)[C@H]5O)C[C@]34C)C2(C)C)O[C@H](CO[C@@H]2OC[C@H](O)[C@H](O)[C@H]2O[C@@H]2OC[C@@H](O)[C@H](O)[C@H]2O)[C@@H](O)[C@@H]1O (stereo not given in full) | -0.702% | -3.42% | -0.528% | -12.4% | 2.26%
CC1(C(=O)NC2CCCC2)Cn2c(nc3ccccc32)C(=O)N1Cc1ccccc1Cl (stereo not given) | -0.58% | 0% | -2.44% | -0.748% | -0.592%
O=C(CC1C(=O)NCCN1Cc1ccoc1)NCc1nnc2n1CCCCC2 (stereo not given) | -12.1% | -8.06% | -2.54% | -11.4% | -18.7%
CC(C)Oc1ccc2c(NC(=O)[C@H]3CCCO3)nn(CC(F)(F)F)c2c1 | -0.627% | -0.385% | 1.5% | -2.51% | 1.56%
Nc1ncnc2c1c(-c1cccc(OCc3ccccc3)c1)cn2C1CC(CN2CCCC2)C1 (stereo not given) | -56.7% | -46.5% | -91.7% | -80% | -99%
O=C(Cn1nc2c(cc1=O)CCCCC2)NC1CCN(C(=O)c2cc3ccccc3[nH]2)CC1 | -5.02% | 1.5% | -0.48% | -7.55% | -41.7%
CNC(=O)N1CCC(C2CCN(C(=O)CCn3cccn3)C2)CC1 (stereo not given) | -2.23% | -6.78% | -1.6% | -7.61% | -4.62%
CCCn1c(=O)c2ccc(C(=O)NC(C)C)cc2n2c(=O)n(C(C)C(=O)c3ccc(C)c(C)c3)nc12 (stereo not given) | 5.54% | 1.5% | 10.6% | -2.17% | 10.3%
CCCCCCCCCC(=O)N[C@@H](Cc1c[nH]c2ccccc12)C(=O)N[C@H](CC(N)=O)C(=O)N[C@@H](CC(=O)O)C(=O)N[C@@H]1C(=O)NCC(=O)N[C@@H](CCCN)C(=O)N[C@@H](CC(=O)O)C(=O)N[C@H](C)C(=O)N[C@@H](CC(=O)O)C(=O)NCC(=O)N[C@H](CO)C(=O)N[C@@H]([C@@H](C)CC(=O)O)C(=O)N[C@@H](CC(=O)c2ccccc2N)C(=O)O[C@@H]1C | 0.123% | 8.57% | 1.77% | -8.64% | -3.98%
CCOCCCNC(=O)CCc1nnc2n(Cc3ccc(Cl)cc3)c(=O)c3ccccc3n12 | -11.1% | 4.74% | 0.741% | 5.74% | -1.32%
COc1ccccc1NC(=O)Cn1nc2n(CCC(C)C)c(=O)c3ccccc3n2c1=O | 1.42% | 2.4% | 6.51% | -1.45% | 2.11%
CC1(C(=O)NC2CCCCCCC2)Cn2c(cc3sccc32)C(=O)N1Cc1cccc(F)c1 (stereo not given) | 5.97% | 1.6% | 10.1% | 4.95% | 4.02%
CCN1C(=O)c2cc(C(=O)Nc3ccc(C)c(C)c3)nn2CC1(C)C(=O)NC1CCCC1 (stereo not given) | 2.36% | 0% | -5.23% | 0.571% | 2.1%
CC1(C(=O)NC2CCCCCCC2)Cn2c(ccc2-c2ccco2)C(=O)N1CCN1CCOCC1 (stereo not given) | 5.15% | 0% | 10.8% | 13.6% | 6.63%
COc1c2c(c(C)c3c1C(=O)OC3)O[C@@]1(C)C[C@@H](OC(C)=O)[C@]34O[C@](OC)(CC[C@]3(C)[C@H]1C2)OC4(C)C | -24.3% | -20.5% | 1.98% | -69.6% | -6.81%
Cc1cccc(CNC(=O)Cn2ccc3cc(S(=O)(=O)N4CCCC4)ccc32)c1 | 0.567% | 3.32% | -3.07% | -2.23% | -1.4%
CCCS(=O)(=O)N1CCCCC1c1nc(-c2cnccn2)n[nH]1 (stereo not given) | 0.813% | -0.368% | 0.234% | 2.29% | 2.75%
C[C@H]1[C@@H]2[C@@H](O)C([C@H](C)C(=O)NC3CCCCC3)CC[C@@]2(C)CC[C@@H]1NC(=O)C1CC1 (stereo not given in full) | -0.486% | -4.83% | -0.802% | -3.76% | -0.799%
CSc1cccc(NC(=O)c2cc3n(n2)CC(C)(C(=O)NC2CCCCCC2)N(C)C3=O)c1 (stereo not given) | 4.22% | 0% | 6.19% | 1.65% | 4.74%
O=C(Cn1nc2n(Cc3ccc(F)cc3)c(=O)c3ccccc3n2c1=O)Nc1ccc2c(c1)OCO2 | -1.98% | -0.641% | 2.5% | -2.12% | -3.76%
Cc1cccc2ncc(C(=O)N3CCC4(CCNC(=O)CC4)CC3)c(=O)n12 | 2.11% | 0.813% | 0.696% | 3.23% | 0.951%

Compound | activity change, negative = inhibition [1] | activity change, negative = inhibition [2] | activity change, negative = inhibition [3] | activity change, negative = inhibition [4] | activity change, negative = inhibition [5]
CCc1cc2c(cc3n2CC(C)(C(=O)NC2CCCCC2)N(CCCc2ccccc2)C3=O)s1 (stereo not given) | -0.023% | -1.99% | 9.34% | 5.88% | 0.2%
COc1ccc(O)c(CN2CCCC(Nc3ccc(F)cc3)C2)c1 (stereo not given) | -6.83% | -0.716% | -3.71% | -1.85% | -13.2%
CN1CCN(CCCN2C(=O)c3cc4sccc4n3CC2(C)C(=O)NC2CCCCC2)CC1 (stereo not given) | 6.07% | 0.155% | 7.19% | 5.59% | 3.76%
CC1(C)N=C(c2ccccc2)C(=O)N1CC(=O)N1CCN(c2ccccc2F)CC1 | -6.93% | -0.108% | -0.342% | -1.53% | 9.24%
Cc1nc(C)c(C(=O)N2CCc3onc(-c4cccc(F)c4)c3C2)s1 | -5.23% | -1.74% | -0.535% | -2.08% | 0.219%
CC(=O)O[C@H]1C[C@@H](O)C(C)(C)C2C[C@@H](OC(C)=O)[C@@]3(C)C4=CCC(C(CO)CC(O)C5OC5(C)C)[C@]4(C)CCC3[C@]21C (stereo not given in full) | 0% | 6.25% | 8.76% | -6.48% | 6.09%
O=C(Cn1nc2n(Cc3ccccc3)c(=O)c3ccccc3n2c1=O)c1ccc(F)cc1 | -0.573% | 0.656% | 4.72% | -6.29% | -0.972%
O=C(O)c1ccncc1Nc1nn(CCN2CCC(F)(F)CC2)c2ccc(F)cc12 | -11.6% | -0.63% | 2.69% | -18.1% | -5.75%
Cn1nc(-c2cccc(F)c2)c(N2CCCCC2)c1NC(=O)Nc1ccccc1 | -3.64% | -4.99% | -2.05% | -9.13% | 9.29%
CN1CC[C@H]2CN(C(=O)c3scc4c3OCCO4)C[C@@]2(C(=O)O)C1 | -5.3% | -7.75% | -4.49% | -11.7% | -6.69%
CC(=O)N1CCC(N2CC3(C2)C(=O)N(CCCN2CCCC2=O)C(=O)[C@@H]2C[C@@H](O)CN23)CC1 | -0.22% | 0.612% | 2.01% | -2.9% | 1.15%
COc1ccc(CC(=O)NC2CCN(c3nc4ncccc4o3)C2)cc1 (stereo not given) | -5.01% | -9.63% | -2.2% | -2.9% | -9.71%
CCC[C@@H](NC(=O)N1C(=O)C(CC)(CC)[C@@H]1Oc1ccc(C(=O)N2CCN(C)CC2)cc1)c1ccc2c(c1)OCO2 | -6.83% | 13.7% | 5.72% | -7.62% | 5.34%
Cc1ccc(C)c(CN2CC(=O)N(Cc3ccccc3)c3ccccc3S2(=O)=O)c1 | 2.83% | 0% | 0.286% | 1.75% | 3.09%
CC1CCN(C(=O)CC2Sc3ncccc3N(C)C2=O)CC1 (stereo not given) | 2.03% | -0.172% | 1.31% | 1.61% | -0.418%
CN(Cc1ccccc1)C(=O)CCn1ccc2cc(S(=O)(=O)N3CCCCC3)ccc21 | 1.93% | 7.02% | -3.91% | -3.69% | -1.43%
CC(C)n1c(=O)c2ccc(C(=O)NC3CCCC3)cc2n2c(=O)n(Cc3cccc(Cl)c3)nc12 | -0.822% | -1.27% | 2.62% | -1.03% | -3.89%
CN(CCCc1nccn1C)C(=O)[C@H]1CCC[C@H](O)C1 | -7.67% | -2.76% | -1.33% | -4.55% | -9.6%
CC(C)CN1CC2(C1)C(=O)N(CCCN1CCCC1=O)C(=O)[C@@H]1C[C@@H](O)CN12 | -0.844% | -1.2% | -0.424% | -6.46% | -1.76%
CN(Cc1ccc2c(c1)OCO2)C(=O)C1(C)CCOCC1 | -2.6% | -0.799% | 0.987% | -1.46% | -1.14%
COc1cc(OC)cc(OCc2nnc(C(=O)N3CCC[C@@H]3C)n2-c2ccccc2)c1 | -4.66% | -3.26% | -1.12% | -15.2% | -6.34%
CN(Cc1ccccc1)C(=O)Cn1c(=O)oc2cc(S(=O)(=O)NCc3ccccc3)ccc21 | -1.65% | 0.087% | 3.19% | 6.17% | -1.23%
CN(CC1CCCN(CCc2cccc(C(F)(F)F)c2)C1)C(=O)c1ccc2[nH]ccc2c1 (stereo not given) | -8.94% | -10.5% | -15% | -24.8% | -30.7%
O=C(Nc1ccc(Cl)cc1)N1Cc2c(sc3c2CCCC3)-n2cccc2C1c1ccccc1 (stereo not given) | -3.14% | 4.35% | -2.26% | -2.29% | 1.15%
COCCCNc1nc2c(S(=O)(=O)c3ccc(C)c(C)c3)nnn2c2ccc(Cl)cc12 | -11.7% | 0% | 0.532% | -3.35% | -5.74%
O=C1CN(Cc2ccc(Cl)cc2)S(=O)(=O)c2ccccc2N1Cc1ccccc1F | 14.8% | 0% | 9.4% | 5.41% | 7.51%
COc1ccc(C[C@H](NC(=O)C2=C[C@@H](Oc3cc(F)ccc3Br)[C@H](O)[C@H](O)C2)C(N)=O)cc1 | -1.23% | -2.25% | -0.414% | -1.36% | 3.96%
